Results on two molecules are retold here after patent US20190023795A1 (OSLO UNIVERSITETSSYKEHUS HF, published 2019).

The target of assay [1] is T1, murine mannose receptor (MRC1; CD206) (murine, UniProt Q61830 20-1456).
T1 construct: whole, on cells; also called mMRC1; murine CD206
T1 sequence (looked up): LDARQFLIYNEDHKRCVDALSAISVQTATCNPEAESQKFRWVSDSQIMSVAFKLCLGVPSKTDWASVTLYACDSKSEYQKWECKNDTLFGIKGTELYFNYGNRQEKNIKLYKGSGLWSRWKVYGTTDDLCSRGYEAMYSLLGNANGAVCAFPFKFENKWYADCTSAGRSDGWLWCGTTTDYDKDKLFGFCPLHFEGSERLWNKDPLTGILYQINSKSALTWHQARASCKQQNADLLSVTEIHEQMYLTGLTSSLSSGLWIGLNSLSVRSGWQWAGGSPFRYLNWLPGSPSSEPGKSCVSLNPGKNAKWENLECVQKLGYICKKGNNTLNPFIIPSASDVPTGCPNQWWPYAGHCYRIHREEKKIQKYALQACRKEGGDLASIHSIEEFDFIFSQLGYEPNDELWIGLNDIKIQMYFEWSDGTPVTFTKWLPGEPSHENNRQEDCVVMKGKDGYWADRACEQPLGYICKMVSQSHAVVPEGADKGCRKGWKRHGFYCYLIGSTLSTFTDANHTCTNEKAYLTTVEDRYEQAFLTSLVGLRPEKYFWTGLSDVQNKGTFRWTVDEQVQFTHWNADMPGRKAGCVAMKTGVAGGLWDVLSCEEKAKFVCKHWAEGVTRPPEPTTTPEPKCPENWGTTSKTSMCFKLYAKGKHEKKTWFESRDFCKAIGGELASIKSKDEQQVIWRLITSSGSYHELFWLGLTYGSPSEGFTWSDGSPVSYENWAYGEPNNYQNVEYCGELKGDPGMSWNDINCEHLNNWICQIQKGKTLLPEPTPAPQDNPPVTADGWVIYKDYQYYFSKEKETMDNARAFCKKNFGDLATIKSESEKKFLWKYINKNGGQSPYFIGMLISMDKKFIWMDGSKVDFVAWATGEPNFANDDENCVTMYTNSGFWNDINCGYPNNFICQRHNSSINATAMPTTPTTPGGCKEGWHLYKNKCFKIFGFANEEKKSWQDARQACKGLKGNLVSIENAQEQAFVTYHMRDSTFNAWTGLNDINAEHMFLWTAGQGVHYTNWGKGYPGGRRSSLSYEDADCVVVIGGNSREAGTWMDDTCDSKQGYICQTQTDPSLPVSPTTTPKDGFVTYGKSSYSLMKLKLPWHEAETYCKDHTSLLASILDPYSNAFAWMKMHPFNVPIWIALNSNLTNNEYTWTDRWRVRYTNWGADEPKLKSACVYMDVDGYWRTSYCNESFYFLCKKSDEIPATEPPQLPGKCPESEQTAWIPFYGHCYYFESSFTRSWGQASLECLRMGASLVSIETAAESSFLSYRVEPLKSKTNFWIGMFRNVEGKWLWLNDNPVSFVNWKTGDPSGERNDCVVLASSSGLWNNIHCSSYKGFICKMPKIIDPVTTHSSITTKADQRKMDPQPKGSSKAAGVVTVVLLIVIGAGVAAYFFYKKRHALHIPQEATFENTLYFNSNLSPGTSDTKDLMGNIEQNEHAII
Kind of assay: flow cytometry on CHO cells expressing mMRC1, detection with antibodies against IL15 or the 6xHis tag.

In assay [2] the target is T1, murine mannose receptor (MRC1; CD206). Kind of assay: flow cytometry on CHO cells expressing mMRC1, detection with APC-conjugated anti-IL15 antibody.

B1: 206Nb-hIL15 fusion protein (other)
chain: MAQVQLQESGGGLVQPGGSLRLSCAASGNIFSINAIGWYRQAPGKQRELVATITLSGSTNYADSVKGRFSISRDNAKNTVYLQMNSLKPEDTAVYYCNANTYSDSDVYGYWGQGTQVTVSSAHHSEDPSSKAPKAPMA[about 120 residues not listed]
notes: not shown: C-terminal cMyc/6xHis tag
As to B1, the binding result in assay [1] was “binds”.

B2: 206Nb-RLI fusion protein (other)
chain: MAQVQLQESGGGLVQPGGSLRLSCAASGNIFSINAIGWYRQAPGKQRELVATITLSGSTNYADSVKGRFSISRDNAKNTVYLQMNSLKPEDTAVYYCNANTYSDSDVYGYWGQGTQVTVSSAHHSEDPSSKAPKAPMAITCPPPMSVEHADIWVKSYSLYSRERYICNSGFKRKAGTSSLTECVLNKATNVAHWTTPSLKCIRDPALVHQRPAPPSGGSGGGGSGGGSGGGGSLQ[about 120 residues not listed]
notes: The tag-free form was purified on an anti-IL15 column
Take B2: in assay [2], the binding result was “binds”.
